# Results taken from the supplement of paper PMC11417369.
# ± gives the standard deviation of the averaged measurements. The list shows a part of the results.
# Tested on: PfAP2-EXP AP2 domain (GST-tagged)
# Test: gcPBM binding intensity (ln(normalized median fluorescence intensity)); higher = stronger DNA binding
# Procedure, shortened: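 Binding of GST-tagged P. falciparum DNA-binding domains, expressed in E. coli and used at about 25 μg on average, was carried out for 1 h in 1× PBS containing 1% milk, 0.2 mg/ml BSA, 0.5% salmon testes DNA and 0.03% Triton X-100. The target was an Agilent 4 × 180k array of primer-extended double-stranded 36-bp intergenic genomic probes plus negative controls, read with Alexa488 anti-GST antibody at 488 nm. Binding intensity is the highest Masliner-normalised natural-log median intensity across replicate spots of either probe orientation.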
row,Sequence,gcPBM binding intensity (ln)
1,TATAAATATACACCCACACACATATATATATATATA [CACACA_site3745],10.2 ± 0.4
2,TGTGTAAACATATTCACACACATAAATTCGCATATA [CACACA_site6961],8.26 ± 0.33
3,TATATAAAAAATAAATGTACACATGTAATAATAAAA [XGTACX_site2640],8.97 ± 0.36
4,ACAAAATATACAAAATGTACAAAATTTACAAAATAT [XGTACX_site6466],8.51 ± 0.3
5,AGCACAAGCACAAGCACACATTTATATATAAATACA [CACACA_site4642],8.73 ± 0.38
6,TACCCATGCATTTTTGCACACACATATATATATAAA [CACACA_site1429],8.84 ± 0.21
7,AGACAGCGCACAAACACACAAACACCCACCCACATA [CACACA_site451],8.93 ± 0.62
8,ATTTTTGTACACTTCTTTTTTTTTTTTCTTTTATGT [CACACA_negctrl_site1323],8.98 ± 0.35
9,TACTTACATATAATAACACACAAGAAAAAAATAAAA [CACACA_site1033],8.72 ± 0.55
10,AAAAAAAGAAAAATTGCACACACTTATAAAAATATA [CACACA_site4014],8.35 ± 0.42
11,TTTTGTTATGAGAGGGTGCTAATATTTGGATATAAA,8.49 ± 0.34
12,AAAAAAAAAAAAAGTAGTACATAATATGTTCCTCCT [XGTACX_site8356],8.21 ± 0.17
13,AGAAATAAGAAATATACACACATATATATATATATA [CACACA_site2808],10.2 ± 0.18
14,TCTTATTAAAATATTTATATAGGTAATCACAATATT [GTGCAC_negctrl_site568],8.29 ± 0.39
15,CCCCCCGTGTTATATACACACATAATCAAATAAAAT [CACACA_site4111],10.9 ± 0.078
16,TATAAAATAAGACATGCATGTTATACATATATATAT [TGCATGCA_site314],9.88 ± 0.2
17,TGAACAATGTATAATTGTACGCAACGAAAATAAAAA [XGTACX_site1559],9.01 ± 0.44
18,ATCATGTTATATATGTGTACATATATATGATATAAT [XGTACX_site991],8.37 ± 0.39
19,ATTATAAATTAAAATACACACATATATACCTAATAT [CACACA_site5541],8.47 ± 0.4
20,AGAATAAAAATACAAGCACACATGTATGAAATATAT [CACACA_site3213],8.88 ± 0.5
21,ATATATAATTACACAAATAAAAAAATAAAATGAAAT [CACACA_negctrl_site1513],8.77 ± 0.4
22,AAAAAATAATAATAATGTACAAATAAAATAAAAACA [XGTACX_site6568],8.82 ± 0.47

row,Sequence,gcPBM binding intensity (ln)
1,AAGGAATATGTATATACACACAGGTACATATATATA [CACACA_site441],8.655 ± 0.064
2,ATATATTTTTACCATACACACATATAATAAATATAT [CACACA_site3722],8.84 ± 0.19
3,ATAAAAATTGAAACATGTACACATATTCATTTTATA [XGTACX_site7968],8.34 ± 0.3
4,TCGTGTGAAAATATTACACACATTTACTATAGTATC [CACACA_site7590],8.52 ± 0.34
5,ACATATACAAGACACACACACAACGTTTTAATAAAT [CACACA_site7017],8.79 ± 0.49
6,ATAATAATATTGTGTACACAATAATTTGTCAAATCA [CACACA_site6019],8.71 ± 0.2
7,AAAAAAAAAAAAAAATGTACATATATATATATATAT [XGTACX_site876],9.99 ± 0.36
8,TATTTTTTTCTTACTACACACATATATATGCTTTCC [CACACA_site4058],9.04 ± 0.42
9,AATGGAAAAAAAAAAATAAATACAAATAAATACAAA [GTGCAC_negctrl_site407],8.59 ± 0.5
10,TTATATTATACATACACACCCATATAACATGTTTTT [CACACA_site6539],8.8 ± 0.47
11,TCATTAATATTTCATAGTACAATTTTGTCTAATTGT [XGTACX_site6720],8.39 ± 0.3
12,TTTAAAAAAAAAAAAAAAAAAAAAAAAAAAAATTTG [CACACA_negctrl_site1235],7.64 ± 0.51
13,AAAAAAATATATATATATATATATATATTATATATG [GTGCAC_negctrl_site654],8.29 ± 0.2
14,TTTTATTATTTTTGTTGTACAGTATACTGTATGATT [XGTACX_site5359],8.94 ± 0.23
15,TAATTATAGGTATACACACACATACATTTACATAAC [CACACA_site7509],8.88 ± 0.25
16,TCATACATTTTCCTTGCACACATTTATAATTAATGG [CACACA_site4511],8.9 ± 0.37
17,ATATACTATTATGTGTGTACATAATAATTTATTATA [XGTACX_site3776],8.21 ± 0.099
18,AACAAACACAGACACACACACACACTAATATGATTA [CACACA_site8770],8.61 ± 0.46
19,TAAAACAAAAAAAAGATGCACTATTTATTTTATTAT,8.34 ± 0.28
20,AAAGATACTTTCCTCAAACACACAAAACTATACAAC [CACACA_site1475],8.79 ± 0.45
21,AATAAAAAGAAACACACACACACACCCATATATATA [CACACA_site3589],8.55 ± 0.13
22,TTATCACATTATTGCACACACATAAAGAAAAAAATA [CACACA_site2841],8.82 ± 0.15

row,Sequence,gcPBM binding intensity (ln)
1,ATATAAGAACAAAATTGTACATAAATATTTATATAA [XGTACX_site7404],8.54 ± 0.39
2,AAAAAAAAGGAAAATAAAAATAAAAAAAAATAATAA [XGTACX_negctrl_site601],8.53 ± 0.52
3,TGAGAAAAAAAGAATTGTACATATAAAATATAACAA [XGTACX_site3500],8.51 ± 0.46
4,GAGGATCATCAATTCACACACATAAAAATGAAGTTA [CACACA_site3078],8.22 ± 0.49
5,CAATTTTCTAATGAAACATGCAAAATAAAATTTTAT [TGCATGCA_site13],8.54 ± 0.38
6,TTCTTTTTAATGTCGGTGCAACTCCATAAAAACAAA [GTGCAC_site9488],8.78 ± 0.16
7,TATATAAAATTCTATTGTACATGTTATACGAAAGAA [XGTACX_site5711],8.65 ± 0.11
8,CAACGATACAAAAAAGGTACACATATATATATATAT [XGTACX_site8688],10.2 ± 0.47
9,CAAATACATAGACACACACACATATACATATTTATA [CACACA_site7610],8.63 ± 0.43
10,TATTTGATAAATTATACACACACAATATATATAAAA [CACACA_site8625],8.4 ± 0.51
11,GAATAAAGGAGAGGCACACATATATATATATATATA [CACACA_site2452],10.2 ± 0.25
12,TTTATATTTAAATGCATGCACTTTCTATTTTTTTTT [GTGCAC_site9959],10 ± 0.33
13,GACCATGTTAACAAAGCATGCATCTCTATATGTTTA [TGCATGCA_site358],8.87 ± 0.49
14,TTATTTTATAAATCGAAAACAAACAAAAAAAAGATA [XGTACX_negctrl_site178],8.7 ± 0.49
15,TTGCTGTATTTATTTTGTACACATTTGGCATTATAT [XGTACX_site3408],9.02 ± 0.43
16,AAAAAAAAAAGAAAGAGTACTTTTTCAATACATATA [XGTACX_site2468],8.34 ± 0.43
17,AAGAAAAACAATACGTGTACCAAGCATCCTACTAAC [XGTACX_site6628],8.69 ± 0.33
18,ACATAAAATAAATATACACACATATGTATATATCAT [CACACA_site7424],8.22 ± 0.29
19,TTAATATAATTAAAATGTACTTATTTGTAAACATTA [XGTACX_site6313],7.99 ± 0.46
20,TTTGTAGCACTTAAGAGTACAAAATGTATAAGATTT [XGTACX_site2321],8.64 ± 0.42
21,ATATATATAAACAAAAGTACATATATAAATTCATTT [XGTACX_site3482],8.38 ± 0.19
22,TTAAAGTTACATTCGACACACACATAACAACTAAAT [CACACA_site9130],8.79 ± 0.52

row,Sequence,gcPBM binding intensity (ln)
1,TCTTATATTATATTGTGTATTAAAATTTAACTTCAA [TGCATGCA_negctrl_site565],8.42 ± 0.38
2,ATATATGTATATATGTACATGAATATATAAAGAAAA [CACACA_negctrl_site315],8.79 ± 0.32
3,ACAAATAAATAAATATGTACTTAATTATATAATTGA [XGTACX_site5626],8.26 ± 0.29
4,GTTTATATTTAATTTTTTTGTTTTTTTGTGTAATTC [XGTACX_negctrl_site194],8.53 ± 0.47
5,TATTTATACTAATATGCATGTAATCGAAATACAGCT [TGCATGCA_site457],8.64 ± 0.36
6,ATCTATTCACACTTTTAAAAATTAAATATATTATAT [TGCATGCA_negctrl_site610],8.75 ± 0.44
7,TAATTTTTTTTTTATAGTACACATATTAAAGAATTA [XGTACX_site2485],8.16 ± 0.36
8,AATAAAAAAAAAATATATATTTTTTTTTTTTTTTTT [CACACA_negctrl_site54],8.54 ± 0.19
9,TATATATATATATGTAGTACTTTACAAAATAATTCG [XGTACX_site5322],9.98 ± 0.49
10,GCATAACCTTTATATTGTACATATACCTTTATTGTT [XGTACX_site6046],9.16 ± 0.45
11,AATAAATTCATGATAGTGCAAAAATTATTTTTGTTA,8.52 ± 0.19
12,TAGTTATCACATTGCACACACATTTCCTTTTACATT [CACACA_site7589],9.06 ± 0.41
13,TTATTTATACGCTATGAGTTTGATACAAACAATTAA [XGTACX_negctrl_site456],8.85 ± 0.52
14,TTTTTACGGAATTAGAGAAAAGAAATAAAAAAAAAA [XGTACX_negctrl_site436],8.38 ± 0.46
15,TTTATATTTATGTAGGTGCATTTGTTTACAACATAT [GTGCAC_site9511],9.04 ± 0.092
16,TATTCAAAGAAAAACTGTACGTGTAGCCTACATCCT [XGTACX_site7707],8.46 ± 0.34
17,TTTTTTGTTATTTTCCGTTTTTTTCCATTATAATTT [GTGCAC_negctrl_site461],8.95 ± 0.59
18,ACGTTAAAAACAAGTTGTACACAATAAATTATTCTT [XGTACX_site6321],8.82 ± 0.54
19,ATTATCCATCAAAAGGTGCAAATTTTTAATTATAAA [GTGCAC_site9932],8.45 ± 0.13
20,AAAGATGATAAAATATGTACACACAGTTTATACATT [XGTACX_site8703],8.24 ± 0.092
21,TGAGTCTTTTACATTGCACACACATTTCTTTCCTTT [CACACA_site8978],9.04 ± 0.47
22,ATATCAATATAAAGTACACACTATAGTATGTATTAT [CACACA_site5286],8.55 ± 0.45
